From PubChem BioAssay AID445 (National Center for Advancing Translational Sciences (NCATS), 2006)
Hit rate of the full screen: of about 110,000 compounds, about 40 (0.04%) were called active. Inconclusive results, whose numbers are uncertain, are shown with a selection of clear calls. Calls follow the shape of the dose curve; as a rule, active = well fitted curve in the direction sought with a large enough effect in the signal ratio (not every such curve was filed as active); inconclusive = small, poorly fitted or top-dose-only effect, or a change in a side signal; inactive = flat fitted curve, though single readings scatter; the % refers to the signal ratio. Where the call is inconclusive, the potency comes from a doubtful curve fit.

Test: IkB Signaling;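 as to IkBa stabilization activation: 0% = basal untreated cells and 100% = reference inhibitor full response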
Settings: ABC-DLBCL IkBa-CBG/CBR dual luciferase ratio (green luciferase fused to IkBa over red control in OCI-Ly3 lymphoma cells), 4 h; IkBa stabilization activation: at 57.1 µM (top of the series), scaled: untreated 0%, proteasome inhibitor 100% unless noted
In short: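 In this assay, an IκBα–CBG68 fusion accumulates when IKK-driven degradation is blocked; native CBR normalizes for cell number. OCI-Ly3 cells were treated 4 h with compound and doxycycline, then green and red light read after Chroma-Glo addition.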
Potency is read from the fitted curve at half-maximal effect.

Row | SMILES | IkBa stabilization activation | Potency
1 | COc1cccc(OCc2nc3ccccc3n2CCOc2ccccc2)c1 | inconclusive: 4.62% [signal inhibitor] | –
2 | O=C(Cn1c(=O)nc(-c2ccccc2)c2cc(Cl)ccc21)NCc1ccccc1 | inconclusive: 0.715% [signal inhibitor] | –
3 | Cn1nc(-c2ccc(OCC(=O)Nc3ccccc3)cc2)c2ccccc2c1=O | inconclusive: 6.15% [signal inhibitor] | –
4 | COc1cc(OC)cc(C(=O)Nc2ccc(S(=O)(=O)Nc3cc(C)nc(C)n3)cc2)c1 | inconclusive: 3.85% [signal inhibitor] | –
5 | CCCCn1c(COc2cccc(OC)c2)nc2ccccc21 | inconclusive: 1.34% [signal inhibitor] | –
6 | COc1ccc(CCN2CC(C(=O)NCCc3ccc(C)cc3)CC2=O)cc1OC (centres undefined) | inconclusive: -2.23% [signal inhibitor] | –
7 | CCNc1ncc2nc(CCc3ccccc3)c(=O)n(C)c2n1 | inactive: -1.73% [at 11.4 µM, scaled: untreated 0%, proteasome inhibitor 100%] | –
8 | CC(C)(CC(=O)OCC(=O)Nc1ccc(F)c(Cl)c1)CC1=NS(=O)(=O)c2ccccc2N1 | inconclusive: 5.29% [signal inhibitor] | –
9 | Cc1ccccc1NC(=O)c1sc2nc(-c3ccncc3)ccc2c1N | inconclusive: -9.91% [signal inhibitor] | –
10 | CC(=O)Cc1nsc(NC(=O)c2ccc(-c3ccccc3Cl)o2)n1 | inconclusive: 7.01% [signal inhibitor] | –
11 | CC(=O)Oc1c(C)cc(O)c2ccccc12 | – | inconclusive: 25.1 µM [signal inhibitor, partial curve]
12 | O=C(Nc1cccc(-c2cn3ccccc3n2)c1)c1cnccn1 | inactive: -0.106% | –
13 | CCOC(=O)c1ccc(N2C(=O)c3n[nH]c(-c4cccs4)c3C2c2ccc(C)cc2)cc1 (centres undefined) | inconclusive: -3.46% [signal inhibitor] | –
14 | COC(=O)c1ccc(CSc2nc3scc(-c4cccs4)c3c(=O)[nH]2)o1 | inconclusive: 11.3% [signal inhibitor] | –
15 | CCCN(CCC)CCCNC(=O)Cn1ncc2c3ccccc3n(Cc3ccc(F)cc3)c2c1=O | inconclusive: 1.91% [signal inhibitor] | –
16 | CCCCOc1cccc(C(=O)Nc2cc3nn(-c4ccc(F)cc4)nc3cc2C)c1 | inactive: -3.19% | –
17 | COCCCNC(=O)CCCn1c(=O)c2cccn2c2cccnc21 | inactive: -1.78% | –
18 | Clc1cccc(-c2cc3nc4c(c(N5CCOCC5)n3n2)CCCC4)c1 | inconclusive: 6.29% [signal inhibitor] | –
19 | Cc1cc2ccccc2n1-c1ccc(C(=O)N2CCCCC2)s1 | inconclusive: 5.95% [signal inhibitor] | –
20 | O=C(CSc1nc2ccccc2o1)Nc1nc2c(s1)CCCC2 | inconclusive: 7.1% [signal inhibitor] | –
21 | COc1ccc(OC)c(C(c2nnnn2C2CCCC2)N2CCN(c3ccccc3F)CC2)c1 (centres undefined) | inactive: 4.13% | –
22 | CC(C)Oc1ccc(CNC(=O)c2ccc(NC(=O)c3nsc4ccccc34)cc2)cc1 | – | inconclusive: 7.94 µM [signal inhibitor, full curve]
23 | CC1CCCN(C(=O)c2ccc3c(c2)C(=O)N(CCC2=CCCCC2)C3=O)C1 (centres undefined) | inconclusive: 9.22% [signal inhibitor] | –

Row | SMILES | IkBa stabilization activation | Potency
24 | CCN(CCCNC(=O)c1cc2cc3cc(C)ccc3nc2s1)c1cccc(C)c1 | inconclusive: -0.584% [signal inhibitor] | –
25 | COc1ccc(/C=C(/C#N)c2nc(-c3ccc(-c4ccccc4)cc3)cs2)cc1 | inconclusive: 7.78% [signal inhibitor] | –
26 | Cc1nc(SCC(=O)O)c2oc3ccccc3c2n1 | inactive: -0.859% | –
27 | COC(=O)c1ccc(CN(c2ccccc2OC)S(=O)(=O)c2cccs2)o1 | inconclusive: 0.757% [signal inhibitor] | –
28 | CCN(C(=O)Cn1ncc2c1-c1cc(C)ccc1OC2)c1cc(Cl)ccc1OC | inconclusive: 1.84% [signal inhibitor] | –
29 | CCc1ccccc1NC(=O)CSc1ncc2c(n1)-c1ccccc1N(Cc1ccc(C)cc1)S2(=O)=O | inconclusive: -0.233% [signal inhibitor] | –
30 | COc1ccc2c(c1)CCc1c(C(=O)NCc3cccnc3)noc1-2 | inconclusive: 13.9% [signal inhibitor] | –
31 | COc1ccccc1-c1cc(C(=O)NCc2ccco2)no1 | – | inconclusive: 12.6 µM [signal inhibitor, partial curve]
32 | COc1ccc(-n2ncc(C(=O)N3CCN(c4ccccn4)CC3)c2C2CCN(C(=O)OC(C)(C)C)CC2)cc1 | inconclusive: -1.22% [signal inhibitor] | –
33 | CC(Sc1oc(-c2ccco2)nc1S(=O)(=O)c1ccc(Br)cc1)c1ccccc1 (centres undefined) | inconclusive: 2.82% [signal inhibitor] | –
34 | CCCCNc1nc(Oc2ccc(=O)n(-c3ccccc3)n2)nc(N(C)C)n1 | inconclusive: 0.71% [signal inhibitor] | –
35 | CC1(N2CCOCC2)CC2(O)C(=[N+]1[O-])CCc1c2no[n+]1[O-] (centres undefined) | inconclusive: 17.8% [signal activator] | –
36 | COCCNC(=O)c1c(NC(=O)Cc2coc3cc(C)ccc23)sc2c1CCCC2 | inactive: -3.93% | –
37 | CCC(C)NC(=O)c1ccc2c(c1)N(Cc1cccc(Cl)c1)C(=O)c1ccccc1S2=O (centres undefined) | inconclusive: 1.86% [signal inhibitor] | –
38 | COc1ccc(N2CCN(c3nc(-c4ccccc4F)nc4ccccc34)CC2)cc1 | inconclusive: -1.34% [signal inhibitor] | –
39 | O=C(CN(c1cccc(Br)c1)S(=O)(=O)c1ccccc1)N1CCc2ccccc2C1 | inconclusive: 10.3% [signal inhibitor] | –
40 | CCOc1ccccc1NC(=O)C(NS(=O)(=O)c1cccc2nsnc12)c1ccccc1 (centres undefined) | inconclusive: 2.66% [signal inhibitor] | –
41 | Cc1nnc(N2CCN(c3ccccc3F)CC2)c2c1nnn2Cc1ccc(F)cc1 | inconclusive: 0.409% [signal inhibitor] | –
42 | CCOC(=O)Cn1c(=O)cc(-c2ccccc2)c2c(C)nn(C)c21 | inconclusive: -0.392% [signal inhibitor] | –
43 | O=C(c1cccc2c1-c1ccccc1/C2=N/O)N1CCCCC1 | inconclusive: -3.86% [signal inhibitor] | –
44 | COc1cccc(NC(=O)c2oc3ccccc3c2NC(=O)C(C)(C)C)c1 | inconclusive: 9.22% [signal inhibitor] | –
45 | CC(=O)Oc1ccc(Oc2ccc(-c3noc(C)n3)cc2)cc1 | inconclusive: 1.07% [signal inhibitor] | –
46 | CCc1ccccc1N(CC)C(=O)c1cc2c(s1)-c1ccccc1OC2 | inconclusive: 1.91% [signal inhibitor] | –

Row | SMILES | IkBa stabilization activation | Potency
47 | Cc1ccccc1CSc1nc2nc(C)c(Cc3ccccc3)c(C)n2n1 | inconclusive: 1.22% [signal inhibitor] | –
48 | Cc1cc(NC(=O)CSc2cn(CCNC(=O)c3ccc(Cl)cc3)c3ccccc23)no1 | inactive: -1.56% | –
49 | Cc1nc(-c2ccccc2)sc1-c1ccc(SCC(=O)Nc2ccc(F)cc2F)nn1 | inconclusive: 4.37% [signal inhibitor] | –
50 | CC(=O)c1cc2c(cc1NC(=O)Nc1cccc(Cl)c1)OCCO2 | inactive: 2.16% | –
51 | O=C(c1ccco1)c1cn(CC(=O)N2CCCc3ccccc32)c2ccccc12 | inactive: 0.91% | –
52 | Cc1oc2ncnc(N3CCCCC3)c2c1C(=O)NCC1CCN(Cc2ccc(F)cc2)CC1 | inactive: 1.29% | –
53 | Cc1ccc(CCNS(=O)(=O)c2cc(-c3cc(C)no3)ccc2C)cc1 | inconclusive: 5.39% [signal inhibitor] | –
54 | CCOc1cccc(-c2nnc3sc(COc4ccc(C)cc4)nn23)c1 | inactive: -0.535% | –
55 | CCCN(C(=O)c1cc2c(=O)oc3ccccc3c2s1)c1ccc(CC)cc1 | inconclusive: 2.7% [signal inhibitor] | –
56 | CCc1ccc(OCC(=O)NC(Cc2c[nH]c3ccccc23)C(=O)O)cc1 (centres undefined) | inconclusive: 3.58% [signal inhibitor] | –
57 | Cc1ccccc1Nc1cc(C(=O)NCCCN2CCN(c3cccc(Cl)c3)CC2)c2ccccc2n1 | inconclusive: 1.08% [signal inhibitor] | –
58 | COc1ccc(Cl)cc1C(=O)Nc1ccccc1N1CCN(C(=O)C(C)C)CC1 | inconclusive: 1.26% [signal inhibitor] | –
59 | CCOc1ccc(CCNC(=O)C2CCN(C(=O)N3CC(CC)Oc4ccccc43)CC2)cc1 (centres undefined) | inconclusive: 3.66% [signal inhibitor] | –
60 | CCCCN(CC)CCCNC(=O)CS(=O)(=O)Cc1nc(-c2ccc(C)cc2)oc1C | inconclusive: 4.33% [signal inhibitor] | –
61 | CC1CCN(CC(=O)Nc2sc3c(c2C#N)CCC3)CC1 | inactive: -1.15% | –
62 | CCCOc1ccc(C(=O)Nc2ccc3oc(-c4ccncc4)nc3c2)cc1 | inactive: 2.16% | –
63 | CCOC(=O)c1c(C)[nH]c(C(=O)CN2C(=O)NC(C)(c3ccc(C)cc3)C2=O)c1C (centres undefined) | inconclusive: 1.55% [signal inhibitor] | –
64 | O=C(NCc1ccc(Cl)cc1)c1cnc2sc(N3CCOCC3)nn2c1=O | inactive: -2.82% | –
65 | Cc1c2cnn(CC(=O)NCc3ccc(F)cc3)c(=O)c2c(C)n1Cc1cccc(Cl)c1 | inactive: 0.466% | –
66 | CCOCCCN(Cc1ccco1)S(=O)(=O)c1cc2c(cc1Cl)NC(=O)CO2 | inactive: -1.26% | –
67 | COc1ccc(NC(c2nnc(-c3ccccc3)o2)c2ccccc2F)cc1Cl (centres undefined) | inconclusive: -3.26% [signal inhibitor] | –
68 | COc1cc(NC(=O)CSc2nnc(C)n3c2cc2oc(C)cc23)cc(OC)c1 | inconclusive: -1.66% [signal inhibitor] | –
69 | CN(C)CCN1C(=O)c2oc3ccc(Cl)cc3c(=O)c2C1c1cccc(Br)c1 (centres undefined) | inconclusive: 16.7% [signal inhibitor] | –
